What was measured:
human BMP-9 [1] = target: T1, human BMP-9 (human, UniProt Q9UK05 320-429); assay: SPR screen at low ligand concentration
T1 construct: also called hBMP-9
T1 sequence (looked up): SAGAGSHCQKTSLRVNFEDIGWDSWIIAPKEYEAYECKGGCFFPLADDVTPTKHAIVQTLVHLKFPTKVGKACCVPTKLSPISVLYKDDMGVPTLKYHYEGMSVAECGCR

human BMP-10 [2] = target: T2, human BMP-10 (human, UniProt O95393 317-424); assay: SPR screen at low ligand concentration
T2 construct: also called hBMP-10
T2 sequence (looked up): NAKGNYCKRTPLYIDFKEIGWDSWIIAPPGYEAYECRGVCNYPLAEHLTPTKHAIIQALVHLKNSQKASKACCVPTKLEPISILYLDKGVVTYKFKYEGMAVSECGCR

human BMP-2 = target: T3, human BMP-2 (human, UniProt P12643 283-396); assay: SPR (Biacore), captured construct, soluble ligand
T3 construct: also called hBMP-2
T3 sequence (looked up): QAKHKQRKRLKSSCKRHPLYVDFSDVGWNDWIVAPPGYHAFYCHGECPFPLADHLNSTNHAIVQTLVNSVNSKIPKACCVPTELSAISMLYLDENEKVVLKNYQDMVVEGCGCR

hBMP-2/7 = target: T4, hBMP-2/7 (human, UniProt P12643 283-396; P18075 293-431); assay: SPR (Biacore), captured construct, soluble ligand
T4 construct: read as the BMP-2/BMP-7 heterodimer
T4 sequence (looked up) 1: T3 sequence (looked up)
T4 sequence (looked up) 2: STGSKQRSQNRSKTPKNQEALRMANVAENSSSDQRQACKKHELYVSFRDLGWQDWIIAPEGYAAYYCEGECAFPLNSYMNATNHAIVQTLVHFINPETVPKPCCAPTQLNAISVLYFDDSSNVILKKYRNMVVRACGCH

human BMP-7 = target: T5, human BMP-7 (human, UniProt P18075 293-431); assay: SPR (Biacore), captured construct, soluble ligand
T5 construct: also called hBMP-7
T5 sequence (looked up): T4 sequence (looked up) 2

human TGF-β1 = target: T6, human TGF-β1 (human, UniProt P01137 in part); assay: SPR (Biacore), captured construct, soluble ligand
T6 construct: also called hTGF-β1

human TGF-β2 = target: T7, human TGF-β2 (human, UniProt P61812 303-414); assay: SPR (Biacore), captured construct, soluble ligand
T7 construct: also called hTGF-β2
T7 sequence (looked up): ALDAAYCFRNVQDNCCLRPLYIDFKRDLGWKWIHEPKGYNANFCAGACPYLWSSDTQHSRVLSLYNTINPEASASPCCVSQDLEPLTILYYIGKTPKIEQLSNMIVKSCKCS

human TGF-β3 = target: T8, human TGF-β3 (human, UniProt P10600 301-412); assay: SPR (Biacore), captured construct, soluble ligand
T8 construct: also called hTGF-β3
T8 sequence (looked up): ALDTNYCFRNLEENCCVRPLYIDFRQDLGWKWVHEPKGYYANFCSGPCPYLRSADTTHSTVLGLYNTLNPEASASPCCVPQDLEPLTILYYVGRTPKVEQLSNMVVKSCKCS

human activin A = target: T9, human activin A (human, UniProt P08476 311-426); assay: SPR (Biacore), captured construct, soluble ligand
T9 construct: also called hActivin A
T9 sequence (looked up): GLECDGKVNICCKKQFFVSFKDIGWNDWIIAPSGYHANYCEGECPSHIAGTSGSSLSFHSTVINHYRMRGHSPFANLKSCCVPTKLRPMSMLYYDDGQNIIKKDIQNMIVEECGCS

human BMP-10 [3] = target: T2, human BMP-10; assay: SPR, captured hENG(26-586)-hFc, soluble BMP-10 0.01-1.25 nM, non-linear regression (FIG. 19)
Source text: (§1) Thus, selective high-affinity binding of BMP-9 and BMP-10 is a previously unrecognized property of the ENG extracellular domain that is generalizable across species.

human BMP-9 [4] = target: T1, human BMP-9; assay: SPR, captured hENG(26-586)-hFc, soluble BMP-9 0.01-0.625 nM, non-linear regression (FIG. 18)
Source text: as §1

human TGF-β1, sequence (P01137 279-390 limits assumed): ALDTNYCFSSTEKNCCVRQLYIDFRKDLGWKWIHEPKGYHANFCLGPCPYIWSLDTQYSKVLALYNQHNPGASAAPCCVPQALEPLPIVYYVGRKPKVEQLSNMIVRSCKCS

Kd (human BMP-9 [1]): < 1 nM | Kd (human BMP-10 [2]): < 1 nM | binding result (human BMP-2): no binding (tested: 100 nM) | binding result (hBMP-2/7): no binding (tested: 100 nM) | binding result (human BMP-7): no binding (tested: 100 nM) | binding result (human TGF-β1): no binding (tested: 100 nM) | binding result (human TGF-β2): no binding (tested: 100 nM) | binding result (human TGF-β3): no binding (tested: 100 nM) | binding result (human activin A): no binding (tested: 100 nM) | Kd (human BMP-10 [3]): 0.4 nM | Kd (human BMP-9 [4]): 0.029 nM
B1: hENG(26-586)-hFc (Fc fusion)
chain: GAETVHCDLQPVGPERDEVTYTTSQVSKGCVAQAPNAILEVHVLFLEFPTGPSQLELTLQASKQNGTWPREVLLVLSVNSSVFLHLQALGIPLHLAYNSSLVTFQEPPGVNTTELPSFPKTQILEWAAERGPITSAAELNDPQSILLRLGQAQGSLSFCMLEASQDMGRTLEWRPRTPALVRGCHLEGVAGHKEAHILRVLPGHSAGPRTVTVKVELSCAPGDLDAVLILQGPPYVSWLIDANHNMQIWTTGEYSFKIFPEKNIRGFKLPDTPQGLLGEARMLNASIVASFVELPLASIVSLHASSCGGRLQTSPAPIQTTPPKDTCSPELLMSLIQTKCADDAMTLVLKKELVAHLKCTITGLTFWDPSCEAEDRGDKFVLRSAYSSCGMQVSASMISNEAVVNILSSSSPQRKKVHCLNMDSLSFQLGLYLSPHFLQASNTIEPGQQSFVQVRVSPSVSEFLLQLDSCHLDLGPEGGTVELIQGRAAKGNCVSLLSPSPEGDPRFSFLLHFYTVPIPKTGTLSCTVALRPKTGSQDQEVHRTVFMRLNIISPDLSGCTSKGTGGG[left out - human IgG1 Fc]
notes: also called full-length construct; soluble endoglin (ENG) fusion protein

From patent publication US20200164029A1 (ACCELERON PHARMA, published 2020)
